From PubChem BioAssay AID504332 (National Center for Advancing Translational Sciences (NCATS), 2011)
Screen size: about 350,000 compounds; about 31,000 (8.9%) were called active. The inconclusive results got no clear call from the source; some entries with a clear call stand among them for comparison. Calls follow the shape of the dose curve; as a rule, active = well fitted inhibition curve with a large enough effect; inconclusive = small, poorly fitted or top-dose-only effect; inactive = no such curve, though single readings can be large or run the other way. Potencies beside an inconclusive call are fits to weak or partial responses and may not hold up.

These compounds were tested against Histone-lysine N-methyltransferase EHMT2 (Homo sapiens) (UniProt Q96KQ7) (assay: qHTS Assay for Inhibitors of Histone Lysine Methyltransferase G9a). Details: G9a H3K9 monomethylation, AlphaScreen, 2 h; activity, negative = inhibition: at 59 µM (top of the series) unless noted.
Chain of UniProt Q96KQ7 (Q96KQ7 whole entry, looked up): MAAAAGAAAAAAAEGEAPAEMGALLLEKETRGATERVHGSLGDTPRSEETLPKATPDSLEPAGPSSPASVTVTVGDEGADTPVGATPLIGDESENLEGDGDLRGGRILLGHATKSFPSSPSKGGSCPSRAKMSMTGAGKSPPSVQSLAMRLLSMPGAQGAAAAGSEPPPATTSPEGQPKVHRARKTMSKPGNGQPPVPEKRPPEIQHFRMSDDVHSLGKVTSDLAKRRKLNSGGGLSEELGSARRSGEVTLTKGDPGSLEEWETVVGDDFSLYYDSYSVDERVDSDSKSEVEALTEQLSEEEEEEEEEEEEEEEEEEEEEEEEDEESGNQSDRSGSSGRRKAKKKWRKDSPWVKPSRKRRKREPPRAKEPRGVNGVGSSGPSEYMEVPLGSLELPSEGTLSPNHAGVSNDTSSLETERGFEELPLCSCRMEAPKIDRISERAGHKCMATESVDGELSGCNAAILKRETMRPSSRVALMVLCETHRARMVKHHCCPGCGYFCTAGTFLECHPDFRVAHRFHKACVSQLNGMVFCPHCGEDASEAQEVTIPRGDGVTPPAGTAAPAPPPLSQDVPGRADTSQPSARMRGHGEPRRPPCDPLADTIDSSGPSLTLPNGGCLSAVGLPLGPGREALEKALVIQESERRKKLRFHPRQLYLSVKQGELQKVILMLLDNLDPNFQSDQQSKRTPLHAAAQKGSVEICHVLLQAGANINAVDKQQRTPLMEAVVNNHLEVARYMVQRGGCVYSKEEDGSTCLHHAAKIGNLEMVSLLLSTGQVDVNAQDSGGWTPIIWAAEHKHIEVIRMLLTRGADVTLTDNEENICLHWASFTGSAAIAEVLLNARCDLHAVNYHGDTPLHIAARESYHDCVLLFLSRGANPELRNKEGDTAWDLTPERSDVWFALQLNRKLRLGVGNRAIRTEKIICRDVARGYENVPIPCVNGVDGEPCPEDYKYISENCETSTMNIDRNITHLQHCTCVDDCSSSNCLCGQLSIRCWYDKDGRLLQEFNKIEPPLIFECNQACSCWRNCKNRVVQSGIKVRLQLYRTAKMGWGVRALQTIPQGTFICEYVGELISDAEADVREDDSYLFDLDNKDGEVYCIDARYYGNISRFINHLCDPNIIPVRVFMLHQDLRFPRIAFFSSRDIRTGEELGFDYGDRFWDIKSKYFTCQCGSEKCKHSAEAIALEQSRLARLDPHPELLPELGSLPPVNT
Method in brief: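 G9a (20 nM) was preincubated 15 min with compound, then reacted 2 h at room temperature with 500 nM biotin-H3K9 peptide and 20 µM SAM. Monomethyl-H3K9 detected by AlphaScreen using anti-H3K9me1 antibody.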
% is scaled to controls: 0 for no effect and ±100 for the full control effect; potency is read from the fitted curve at half-maximal effect; tags tell the direction and shape of the fitted curve.
Also: nearly all actives have a fitted effect of over 75% in size.

Row | Structure (SMILES) | Potency | activity, negative = inhibition
1 | Cc1cc(C)c(C#N)c(OCC(=O)c2ccccc2)n1 | inactive | 
2 | CS(=O)(=O)c1cccc(NC(=O)C2CCCN2S(=O)(=O)c2ccc(F)cc2)c1 (stereo not given) | inconclusive: 89.1 µM [inhibitor, single point] | 
3 | COC(=O)C1=C(C)N(C)C(=O)NC1c1c(OC)ccc2ccccc12 (stereo not given) | inconclusive: 0.355 µM [inhibitor, partial curve, poor fit] | 
4 | COc1ccc(C(=O)Nc2ccc(N3CCN(C(C)=O)CC3)cc2)cc1[N+](=O)[O-] | inconclusive: 35.5 µM [inhibitor, partial curve, poor fit] | 
5 | FC(F)(F)Oc1ccc2c(c1)NC(c1ccncc1)=NC(c1cccs1)=N2 | inconclusive: 28.2 µM [inhibitor, single point] | 
6 | CCn1c(SCC(=O)N2CCCc3ccccc32)nc2c(c1=O)SC(C)C2 (stereo not given) | inconclusive: 14.1 µM [inhibitor, partial curve] | 
7 | O=C(COc1ccc(Cl)cc1)Nc1ccc(C(=O)OCc2cc(=O)n3ccsc3n2)cc1 | inconclusive: 28.2 µM [inhibitor, partial curve, poor fit] | 
8 | COC(=O)c1ccc(OC(=O)/C=C/c2ccco2)cc1 | inconclusive: 89.1 µM [inhibitor, single point] | 
9 | CN(C)S(=O)(=O)c1ccc(N2CCOCC2)c(C(=O)O)c1 | inactive | 
10 | Cc1cc(C)nc(NS(=O)(=O)c2ccc(NC(=O)c3ccc(S(=O)(=O)N4CC(C)OC(C)C4)cc3)cc2)n1 (stereo not given) | active: 8.91 µM | 
11 | CCOC(=O)c1c(OCCO)nn(-c2ccc(Cl)cc2)c1N | inconclusive: 79.4 µM [inhibitor, partial curve, poor fit] | 
12 | O=C(O)c1ccc(/C=N/N2CCN(Cc3ccccc3)CC2)cc1 | inconclusive: 35.5 µM [inhibitor, single point] | 
13 | Nc1n[nH]c2cc(=O)n(-c3cccc(C(F)(F)F)c3)nc12 | inconclusive: 89.1 µM [inhibitor, single point] | 
14 | COc1ccc(OCC(=O)Nc2nnc3n2CCS3)cc1 | inconclusive: 7.94 µM [inhibitor, partial curve, poor fit] | 
15 | C=CCc1ccc(OCCOCCNCCCC)c(OC)c1 | inconclusive: 22.4 µM [inhibitor, partial curve, poor fit] | 
16 | CCNc1nc(SCC(=O)Nc2ccc(Cl)c(Cl)c2)nc(N(C)C)n1 | inconclusive: 6.31 µM [inhibitor, single point] | 
17 | CCOc1ccccc1NC(=O)CCC(=O)Nc1ccccc1OCC | inconclusive: 20 µM [inhibitor, single point] | 
18 | COc1ccc(OC)c(-c2csc(NC(=O)c3ccc(OCC4CCCO4)cc3)n2)c1 (stereo not given) | inconclusive: 28.2 µM [inhibitor, single point] | 
19 | CN1CCSc2ccc(C(=O)NCc3cccc(F)c3)cc21 | inconclusive: 79.4 µM [inhibitor, single point] | 
20 | CC(=O)Nc1ccc(NC(=O)C/C(C)=N/NC(N)=S)cc1 | active: 1.41 µM | 
21 | CCOC(=O)c1sc(NC(C)=O)c(C(=O)OCC)c1C |  | inconclusive: -72.7% [inhibitor]
22 | O=C(O)c1ccc(N2CCCCC2)cc1 | inactive | 
23 | C=CCNc1nc(C2(C)CC3(CC(C)(C)OC3=O)C(=O)O2)cs1 (stereo not given) | active: 39.8 µM | 
24 | Cc1ccc2nc(-c3sc4nc(C)ccc4c3N)[nH]c2c1 | inconclusive: 8.91 µM [inhibitor, partial curve, poor fit] | 

Row | Structure (SMILES) | Potency | activity, negative = inhibition
25 | Cc1ccc(OCCCCn2cnc3ccccc32)c(C)c1 | active: 7.94 µM | 
26 | CSCc1nc2sc(C(=O)Nc3nc(C)cs3)c(C)c2c(=O)[nH]1 | active: 44.7 µM | 
27 | O=C(O)c1ccc(-n2c(O)c(C=C3N=c4ccccc4=N3)sc2=S)cc1 | inconclusive: 39.8 µM [inhibitor, single point] | 
28 | Cc1cc(C(F)(F)F)nn1Cc1ccc(C(=O)NCc2ccco2)o1 | inconclusive: 3.16 µM [inhibitor, partial curve, poor fit] | 
29 | CCOC(=O)c1c(C)[nH]c(C)c1C(=O)COC(=O)c1ccc([N+](=O)[O-])s1 |  | inactive: -10.6% [at 2.33 µM]
30 | CC(C)C(NC(=O)c1ccc(C(C)(C)C)cc1)C(=O)NCc1ccccn1 (stereo not given) |  | inactive: 37.2% [at 12.7 µM]
31 | CN(CC(=O)NCc1cccs1)CC(=O)Nc1ccc(F)c(F)c1F | inconclusive: 79.4 µM [inhibitor, single point] | 
32 | Clc1ccc(C2CC(c3cccs3)n3ncnc3N2)c(Cl)c1 (stereo not given) | inconclusive: 70.8 µM [inhibitor, partial curve, poor fit] | 
33 | Cc1ccc(NC(=O)C(C)n2nnc3sc4c(c3c2=O)CCCC4)cc1Cl (stereo not given) | inconclusive: 25.1 µM [inhibitor, partial curve] | 
34 | NC(=O)c1c(NC(=O)c2cnccn2)sc2c1CCCC2 | active: 8.91 µM | 
35 | Cc1ccc(NC(=O)c2cc([N+](=O)[O-])ccc2Cl)c(O)c1 |  | inconclusive: -62.6% [inhibitor]
36 | CCOC(=O)c1[nH]c2ccc(OC)cc2c1NC(=O)CN1CCSCC1 | inconclusive: 89.1 µM [inhibitor, single point] | 
37 | CC(=O)N1c2ccc(S(=O)(=O)NCCC(=O)Nc3ccccc3C)cc2CC1C (stereo not given) | inactive | 
38 | COc1ccc(Br)cc1S(=O)(=O)N1CCCc2ccccc21 | inactive | 
39 | CC(C)n1nccc1N(Cc1ccc(Cl)cc1)S(=O)(=O)c1ccccc1 | inconclusive: 7.94 µM [inhibitor, partial curve] | 
40 | CCOC(=O)C1CCCCN1Cc1cccc(F)c1 (stereo not given) | active: 3.55 µM | 
41 | OC[C@@H]1[C@@H](c2ccc(Cl)cc2)C(c2ccc(F)cc2)=NN1c1ccccc1 | inactive | 
42 | Cc1ccc(C(=O)Nc2cccnc2N2CCN(C)CC2)cc1 | inconclusive: 79.4 µM [inhibitor, single point] | 
43 | O=C(CSc1ncn[nH]1)Nc1ccc(Cl)c(S(=O)(=O)N2CCOCC2)c1 | active: 50.1 µM | 
44 | CC(=O)c1sc(NC(=O)CCCOc2ccc(Cl)cc2)nc1C | inconclusive: 56.2 µM [inhibitor, partial curve, poor fit] | 
45 | CCOC(=O)c1cccc(Nc2cc(-c3ccccc3)ncn2)c1 | active: 15.8 µM | 
46 | COc1ccc(-c2c3c(=O)n(C)c(=O)n(C)c3cn2C2CCCCC2)cc1 |  | inconclusive: -91.1% [inhibitor]
47 | Cn1c(=O)oc2cc(S(=O)(=O)N3CCN(c4ccccn4)CC3)ccc21 | inconclusive: 89.1 µM [inhibitor, partial curve, poor fit] | 
48 | CCn1c2ccccc2c2nnc(SCC(=O)NC3CCS(=O)(=O)C3)nc21 (stereo not given) | active: 39.8 µM | 

Row | Structure (SMILES) | Potency | activity, negative = inhibition
49 | COc1ccc(C(=O)NC(=S)Nc2ccccc2[N+](=O)[O-])cc1OC | inconclusive: 50.1 µM [inhibitor, partial curve, poor fit] | 
50 | O=C(Nc1ccc2c(c1)OCO2)c1cnccn1 | inconclusive: 28.2 µM [inhibitor, single point] | 
51 | O=C(/C=C/c1cccs1)Nc1ccc(N2CCOCC2)c(S(=O)(=O)Nc2ccccc2Cl)c1 | inconclusive: 15.8 µM [inhibitor, single point] | 
52 | CCOC(=O)c1cc(NC(=O)c2ccoc2C)cc(C(=O)OCC)c1 | inconclusive: 50.1 µM [inhibitor, partial curve, poor fit] | 
53 | NCC1CCCCC1CC(=O)O (stereo not given) |  | inactive: -3.21% [at 2.33 µM]
54 | O=C(CCSc1ccccc1)Nc1ncccn1 | inactive | 
55 | CC1CN(C)C(C)C/C1=N/Oc1ccccc1[N+](=O)[O-] (stereo not given) | inconclusive: 79.4 µM [inhibitor, single point] | 
56 | Cc1nc2ccccn2c1C(=O)CSc1cccc(Cl)c1 | inactive | 
57 | CC(C)(C)N1C(=O)Cc2c1nc(N)c1c(N)nc(N3CCCCC3CO)c(C#N)c21 (stereo not given) | active: 7.94 µM | 
58 | Cc1cc(Br)c2[nH]cc(CCNC(=O)c3ccco3)c2c1 | inconclusive: 89.1 µM [inhibitor, single point] | 
59 | CCC(=O)N1c2ccc(S(=O)(=O)NCc3ccc(F)cc3)cc2CC1C (stereo not given) | inactive | 
60 | CCN(CC)C(=O)Cn1nnc2sc(-c3ccccc3)cc2c1=O | inactive | 
61 | COc1cccc(CN(C)C(=O)CCN(c2ccccc2)S(=O)(=O)c2ccc(C)cc2)c1OC |  | inactive: 8.77% [at 0.501 µM]
62 | COc1cccc(NC(=O)C2=C(C)C(=O)OC23CCN(C(C)=O)CC3)c1 | inactive | 
63 | COC1C=CO[C@@]2(C)Oc3c(C)c(O)c4c(O)c(c5c(nc6cc(C)ccn65)c4c3C2=O)NC(=O)/C(C)=C\C=CC(C)C(O)[C@@H](C)C(O)C(C)[C@@H](OC(C)=O)C1C (stereo not given in full) | inconclusive: 7.94 µM [inhibitor, partial curve, poor fit] | 
64 | O=C(c1cc(-c2ccco2)on1)N1CCN(C(c2ccccc2)c2ccccc2)CC1 | inconclusive: 35.5 µM [inhibitor, full curve] | 
65 | CN(C)c1ccc(CNc2ccccn2)cc1 | inconclusive: 89.1 µM [inhibitor, single point] | 
66 | O=C(Nc1ccc2c(c1)OCO2)c1ccc2c(c1)OCO2 | inconclusive: 17.8 µM [inhibitor, single point] | 
67 | CCOc1ccc(C2NC(=O)c3c(COC)cc(C)nc3N2Cc2ccccc2)cc1OC (stereo not given) | inactive | 
68 | C/C=C/c1cc(CN2CCN(c3ccc(OC)cc3)CC2)c(O)c(OC)c1 | active: 35.5 µM | 
69 | COc1ccc(C2/C(=C(/O)c3ccc(Cl)cc3)C(=O)C(=O)N2CCN2CCOCC2)c(OC)c1 (stereo not given) | inconclusive: 25.1 µM [inhibitor, single point] | 
70 | COc1ccc(CCNC(=O)COC(=O)C2CC2C)cc1 (stereo not given) | inconclusive: 4.47 µM [inhibitor, partial curve, poor fit] | 
